Screen size: about 390,000 compounds; about 2,200 (0.56%) were called active. Inconclusive means that the source gave no clear call. Such entries were picked first, then a sample of the others. The call rests on the fitted dose curve; in most records, active means well fitted inhibition curve with a large enough effect; inconclusive means small, poorly fitted or top-dose-only effect; inactive means no such curve, though single readings can be large or run the other way. Where the call is inconclusive, the potency comes from a doubtful curve fit.
Molecular target: Chromobox protein homolog 1 (Homo sapiens) (UniProt P83916)
UniProt P83916, sequence (P83916 whole entry, looked up): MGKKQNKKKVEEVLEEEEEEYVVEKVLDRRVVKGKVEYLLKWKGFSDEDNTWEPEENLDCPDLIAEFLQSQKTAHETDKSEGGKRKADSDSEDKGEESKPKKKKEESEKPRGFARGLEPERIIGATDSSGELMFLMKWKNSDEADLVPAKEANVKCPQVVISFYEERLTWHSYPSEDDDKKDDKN
Assay: HTS for Inhibitors of HP1-beta Chromodomain Interactions with Methylated Histone Tails; further: nearly all actives have a fitted effect of over 70% in size
Settings: AlphaScreen HP1-beta / biotin-H3K9me3 peptide binding; series mostly up to 114 µM; activity change, negative = inhibition: at the top concentration
Procedure, shortened: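 HP1-beta protein (50 nM final) preincubated 30 min at room temperature with biotinylated H3(1-18)K9me3 peptide (50 nM) in PBS pH 7.4, 0.01% Tween-20, then compound added for 30 min. AlphaScreen streptavidin donor/nickel chelate acceptor beads (10 ug/mL final), 30 min dark, luminescence read.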
Potency means the concentration at half of the fitted maximal effect; tags describe the fitted curve by direction and shape.

Row | SMILES | Potency | activity change, negative = inhibition
1 | c1ccc(SCCOCCn2cncn2)cc1 | inconclusive: 35.5 µM [inhibitor, partial curve] | 
2 | CCC(=O)N[C@@H]1CC(C(C)(C)NC(=O)CC)CC=C1C (some centres not stated) |  | inactive: -12.4%
3 | N#CCCn1cc(/C=N/NC(N)=S)c(-c2ccccc2)n1 | inconclusive: 17.8 µM [inhibitor, full curve] | 
4 | O=C(CN(Cc1ccco1)C(=O)CNS(=O)(=O)c1ccc(Cl)cc1)NCc1ccco1 | inconclusive: 89.1 µM [inhibitor, single point] | 
5 | COC(=O)C1=C(C)N(Cc2ccccc2)C(=O)/C1=C\c1ccco1 | inconclusive: 25.1 µM [inhibitor, full curve] | 
6 | CC[n+]1ccc2cc(OC)c(OC)cc2c1Cc1ccc(OC)c(OC)c1 | active: 39.8 µM | 
7 | Cn1cccc1Cc1nnc(SCC(=O)N2CCc3ccccc32)n1-c1ccc(F)cc1 | inconclusive: 79.4 µM [inhibitor, partial curve, poor fit] | 
8 | COc1ccccc1CNc1nc(C)c(C(=O)N(C)C)s1 | inconclusive: 31.6 µM [inhibitor, partial curve] | 
9 | Cc1ccccc1N1CCN(CCN2C(=O)CC(=C3c4ccccc4-c4ccccc43)C2=O)CC1 | inconclusive: 14.1 µM [inhibitor, partial curve, poor fit] | 
10 | Cn1c(CCCOc2ccc(Cl)cc2Cl)n[nH]c1=S |  | inactive: -3.23%
11 | CC(=O)N1CCN(C(=O)c2cc(S(=O)(=O)N(C)Cc3ccccc3)ccc2Cl)CC1 |  | inactive: 32%
12 | COc1cc(C(C[N+](=O)[O-])c2c(C)cc3ccccn23)ccc1O (configuration not stated) | inconclusive: 79.4 µM [inhibitor, partial curve] | 
13 | O=C(NC1CCCC1)C1CC(O)CN1C(=O)Nc1ccccc1 (configuration not stated) |  | inactive: 29.9%
14 | C=CCn1c(CNc2ccccc2)nnc1SCC(=O)N/N=C/c1ccccc1O |  | inactive: 2.64%
15 | Cc1cn2c(=O)cc(COC(=O)COc3ccccc3C)nc2s1 |  | inactive: 45.2%
16 | COc1cc(CO)cc(Br)c1OCC(=O)O |  | inactive: 29.6%
17 | Fc1cc(F)c(F)c(SCCc2ccncc2)c1F | inconclusive: 89.1 µM [inhibitor, partial curve, poor fit] | 
18 | O=C(NC(=S)Nc1cccc(S(=O)(=O)NC2=NCCC2)c1)c1cc(-c2ccco2)nc2ccccc12 | inconclusive: 28.2 µM [inhibitor, partial curve] | 
19 | O=C1CCC([N+](=O)[O-])C(c2cccc([N+](=O)[O-])c2)N1 (configuration not stated) |  | inactive: 23.3%
20 | Oc1cccc(C(=S)N2CCN(Cc3ccccc3)CC2)c1 | inconclusive: 44.7 µM [inhibitor, partial curve, poor fit] | 
21 | Cc1ccc(SCc2cc(=O)c3c(=O)n(-c4ccccc4)[nH]c3[nH]2)cc1 | inconclusive: 50.1 µM [inhibitor, partial curve] | 
22 | Cc1ccc(NC(=S)NNC(=O)C2CC2c2ccc(C)cc2)cc1 (configuration not stated) |  | inactive: -8.49%
23 | COc1ccc(C)cc1Nc1nc(-c2c[nH]c3ccccc23)cs1 |  | inactive: -23.6% [at 57 µM]
24 | COc1ccc(CCN2CC(C(=O)NCc3ccc(F)cc3)CC2=O)cc1OC (configuration not stated) | inconclusive: 89.1 µM [inhibitor, single point] | 

Row | SMILES | Potency | activity change, negative = inhibition
25 | Cc1ccc(C)c(Nc2ccc3nonc3c2[N+](=O)[O-])c1 | inconclusive: 39.8 µM [inhibitor, partial curve] | 
26 | NC(=S)NN=C1c2ccccc2-c2ccccc21 | inconclusive: 15.8 µM [inhibitor, full curve, poor fit] | 
27 | COc1cccc(OC)c1OCCCN1CCOCC1 | inconclusive: 20 µM [inhibitor, full curve, poor fit] | 
28 | Fc1cccc(Nc2ncnc3sc4c(c23)CCC4)c1 |  | inactive: 37.8%
29 | CCOc1ccccc1CN1CCC(O)CC1 | inconclusive: 56.2 µM [inhibitor, partial curve, poor fit] | 
30 | CCCCc1cc(=O)oc2cc(OCC(=O)Nc3cccnc3)c(Cl)cc12 |  | inactive: 7.81% [at 57 µM]
31 | COc1ccc(N2CCN(c3ncnc4scc(-c5ccc(C)cc5)c34)CC2)cc1 | inconclusive: 14.1 µM [inhibitor, full curve] | 
32 | S=C(c1ccc(-c2ccc(Cl)cc2)o1)N1CCCCC1 | inconclusive: 17.8 µM [inhibitor, full curve, poor fit] | 
33 | CCN(CC)c1ccc(C=Nc2ccccc2)c(O)c1 | inconclusive: 39.8 µM [inhibitor, partial curve] | 
34 | CCOc1ccccc1N1CCN(Cc2ccc(OC)c(OC)c2OC)CC1 | inconclusive: 20 µM [inhibitor, full curve] | 
35 | COCCNC(=O)c1cc(S(=O)(=O)N(C)c2ccccc2OC)ccc1C |  | inactive: 49.5%
36 | COc1ccc(C2CC(O)(c3ccccc3)Oc3cc(OC)ccc32)cc1 (configuration not stated) | inactive | 
37 | CC(C)c1ccc(CNc2ccc(N3CCOCC3)cc2)cc1 | active: 11.2 µM | 
38 | CCOC(=O)CSc1nnc(CNC(=O)c2cccs2)n1-c1cccc(C)c1 |  | inactive: 26.8%
39 | CS(=O)(=O)N(CC(=O)NCc1ccc2c(c1)OCO2)Cc1ccccc1 | inconclusive: 5.62 µM [inhibitor, full curve] | 
40 | CCOCCCN(C(=O)c1snc(C(N)=O)c1N)C(C(=O)NC1CCCC1)c1ccc(O)cc1 (configuration not stated) | inconclusive: 89.1 µM [inhibitor, partial curve, poor fit] | 
41 | COC(=O)c1ccc(N2CCOCC2)c(NC(=O)Nc2cccc(OC)c2)c1 |  | inactive: -1.63%
42 | NCCOc1cnn(-c2ccccc2Cl)c(=O)c1Cl | inconclusive: 89.1 µM [inhibitor, single point] | 
43 | COc1cc(C(C)=O)ccc1OCC(O)CNCC1(N2CCCCC2)CCCCC1 (configuration not stated) | inconclusive: 50.1 µM [inhibitor, partial curve, poor fit] | 
44 | O=C(Nc1cc2c(cc1Br)OCCO2)c1ccc(=O)[nH]c1 | inconclusive: 89.1 µM [inhibitor, single point] | 
45 | COC(=O)c1sc(NC(=O)c2cc(-c3ccccc3)nc3ccccc23)c(C#N)c1C | active: 7.94 µM | 
46 | CC(C1CC2CCC1C2)n1c(-c2ccco2)n[nH]c1=S (configuration not stated) | inconclusive: 25.1 µM [inhibitor, full curve] | 
47 | Nc1cc(N)nc(CS)n1 |  | inactive: 72.9%
48 | CC1=C(C)C(c2ccccc2)NC(=S)N1 (configuration not stated) |  | inactive: 32.3%

Row | SMILES | Potency | activity change, negative = inhibition
49 | CCOC(=O)N1CCc2c(sc(NCc3cc(OC)c(OC)cc3OC)c2C(=O)Nc2ccc(OCC)cc2)C1 | inconclusive: 39.8 µM [inhibitor, partial curve] | 
50 | CCc1ccc(NC(=O)CCS(=O)(=O)c2cccc3nsnc23)cc1 |  | inactive: 8.95%
51 | Cc1ccccc1NC(=O)CN1C(=O)N/C(=C\c2ccccc2OCc2ccc(C(=O)O)cc2)C1=O | inconclusive: 89.1 µM [inhibitor, single point] | 
52 | CN(C)c1ccc(-c2nc3ccccn3c2/N=C/c2ccc(Br)cc2)cc1 | inconclusive: 0.891 µM [inhibitor, full curve, poor fit] | 
53 | CN(C)CCCn1c(=S)[nH]c2sc3c(c2c1=O)CCCC3 | inconclusive: 56.2 µM [inhibitor, partial curve, poor fit] | 
54 | COc1cccc(C2CC(=O)N3CN(c4cccc(Cl)c4C)CSC3=C2C#N)c1OC (configuration not stated) | inconclusive: 11.2 µM [inhibitor, full curve, poor fit] | 
55 | CCc1nn2c(=O)cc(COC(=O)c3ccco3)nc2s1 |  | inactive: -3.76%
56 | COCCn1c(C)cc(C(=O)COC(=O)c2ccc3c(c2)NC(=O)CS3)c1C | inconclusive: 79.4 µM [inhibitor, partial curve] | 
57 | Cc1cc(C(=O)NNC(=O)/C=C/c2ccco2)c(C)o1 | inconclusive: 50.1 µM [inhibitor, partial curve] | 
58 | O=C1CSC(=S)N1N=Cc1c(O)ccc2ccccc12 | inconclusive: 70.8 µM [inhibitor, partial curve] | 
59 | CCOC(=O)c1c(CN2CCOCC2)n(-c2ccccc2)c2cc(Br)c(O)c(CN(C)C)c12 |  | inactive: -20.3%
60 | CCN(CC)C(=O)C1CCN(Cc2ccc(OCc3ccccc3)c(OC)c2)CC1 | inconclusive: 17.8 µM [inhibitor, full curve] | 
61 | O=C1/C(=C/C=C/c2ccco2)SC(=S)N1c1ccc(O)cc1 | active: 28.2 µM | 
62 | CCN(C[C@H]1N[C@@](C)(C(=O)OC)[C@H]2C(=O)N(C)C(=O)[C@@H]12)C(=O)Nc1ccc(C)cc1 |  | inactive: 8.19%
63 | COC(=O)C1=C(C)N(c2cccc(C)c2)C(=O)/C1=C\c1cccs1 | inconclusive: 25.1 µM [inhibitor, partial curve, poor fit] | 
64 | CN1c2ccsc2/C(=N/Nc2ccc(F)cc2)CS1(=O)=O | inconclusive: 20 µM [inhibitor, full curve, poor fit] | 
65 | CN(C)S(=O)(=O)c1cccc(N=c2scc(-c3ccc4c(c3)NC(=O)CO4)n2CC2CCCO2)c1 (configuration not stated) | inconclusive: 35.5 µM [inhibitor, partial curve] | 
66 | Cc1ccc(NC(=S)NNS(=O)(=O)c2ccc3ccccc3c2)cc1Cl | inconclusive: 50.1 µM [inhibitor, partial curve] | 
67 | Cc1ccc(-c2csc(=Nc3cccnc3)n2CCCN2CCCC2=O)cc1C | inconclusive: 39.8 µM [inhibitor, partial curve] | 
68 | C/C=C/c1ccc(OCCCCN2CCN(CC)CC2)c(OC)c1 | inconclusive: 25.1 µM [inhibitor, single point] | 
69 | O=C1Nc2ccccc2C1=Nc1ccc2[nH]c3ccccc3c2c1 | inconclusive: 56.2 µM [inhibitor, partial curve, poor fit] | 
70 | c1ccc(CCCNCC2COc3ccccc3O2)cc1 (configuration not stated) |  | inactive: 50.7%
71 | CCNC(=S)NNC(=O)Nc1ccccc1 | inconclusive: 79.4 µM [inhibitor, partial curve, poor fit] | 
72 | COc1cc(C(=O)NCC(c2cccs2)N2CCc3ccccc32)cc(OC)c1OC (configuration not stated) |  | inactive: -25.5%

Reference: PubChem BioAssay AID540317 (National Center for Advancing Translational Sciences (NCATS), 2011)
